No constants are given. Whether binding was seen depends on the method and setting. In cells and extracts the contact can be indirect. Some results given as binding are weak or reduced against the parent protein; the word gives no strength. For part of these data: Sequences can lack the tags named with a protein.
Tests used:
[1] = target: T1, Ras and Rab interactor 1 (RIN1), endogenous (mouse (endogenous in spinal cord dorsal horn)) (UniProt Q921Q7); test: co-IP; anti-RIN1 antibody with lysates of mouse spinal cord dorsal horn in RIPA buffer, overnight at 4°C; Protein A/G-Agarose beads; immunoblot
T1 sequence: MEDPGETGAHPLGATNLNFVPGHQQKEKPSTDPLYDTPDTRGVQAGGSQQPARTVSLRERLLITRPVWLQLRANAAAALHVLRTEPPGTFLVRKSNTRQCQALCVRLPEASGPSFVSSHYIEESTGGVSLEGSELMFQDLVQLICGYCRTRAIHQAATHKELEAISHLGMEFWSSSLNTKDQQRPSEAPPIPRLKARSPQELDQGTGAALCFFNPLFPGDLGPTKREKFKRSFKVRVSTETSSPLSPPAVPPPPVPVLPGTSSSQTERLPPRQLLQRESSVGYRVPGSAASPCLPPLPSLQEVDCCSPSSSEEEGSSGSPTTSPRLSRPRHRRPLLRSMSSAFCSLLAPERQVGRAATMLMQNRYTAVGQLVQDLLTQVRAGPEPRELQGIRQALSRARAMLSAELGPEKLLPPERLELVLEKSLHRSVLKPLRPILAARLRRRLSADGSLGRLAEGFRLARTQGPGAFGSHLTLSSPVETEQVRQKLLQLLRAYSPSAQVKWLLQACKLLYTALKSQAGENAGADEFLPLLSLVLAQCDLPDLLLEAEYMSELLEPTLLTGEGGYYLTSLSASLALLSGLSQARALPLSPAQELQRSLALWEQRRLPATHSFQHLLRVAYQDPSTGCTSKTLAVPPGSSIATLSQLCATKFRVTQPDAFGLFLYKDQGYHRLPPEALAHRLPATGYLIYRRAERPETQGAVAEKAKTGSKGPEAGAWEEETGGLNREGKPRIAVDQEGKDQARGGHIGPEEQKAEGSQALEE

Sequences of proteins named here, by UniProt entry; tags and fusion partners are left off. Residues count along the entry.
UniProt Q01097, residues 27-1482: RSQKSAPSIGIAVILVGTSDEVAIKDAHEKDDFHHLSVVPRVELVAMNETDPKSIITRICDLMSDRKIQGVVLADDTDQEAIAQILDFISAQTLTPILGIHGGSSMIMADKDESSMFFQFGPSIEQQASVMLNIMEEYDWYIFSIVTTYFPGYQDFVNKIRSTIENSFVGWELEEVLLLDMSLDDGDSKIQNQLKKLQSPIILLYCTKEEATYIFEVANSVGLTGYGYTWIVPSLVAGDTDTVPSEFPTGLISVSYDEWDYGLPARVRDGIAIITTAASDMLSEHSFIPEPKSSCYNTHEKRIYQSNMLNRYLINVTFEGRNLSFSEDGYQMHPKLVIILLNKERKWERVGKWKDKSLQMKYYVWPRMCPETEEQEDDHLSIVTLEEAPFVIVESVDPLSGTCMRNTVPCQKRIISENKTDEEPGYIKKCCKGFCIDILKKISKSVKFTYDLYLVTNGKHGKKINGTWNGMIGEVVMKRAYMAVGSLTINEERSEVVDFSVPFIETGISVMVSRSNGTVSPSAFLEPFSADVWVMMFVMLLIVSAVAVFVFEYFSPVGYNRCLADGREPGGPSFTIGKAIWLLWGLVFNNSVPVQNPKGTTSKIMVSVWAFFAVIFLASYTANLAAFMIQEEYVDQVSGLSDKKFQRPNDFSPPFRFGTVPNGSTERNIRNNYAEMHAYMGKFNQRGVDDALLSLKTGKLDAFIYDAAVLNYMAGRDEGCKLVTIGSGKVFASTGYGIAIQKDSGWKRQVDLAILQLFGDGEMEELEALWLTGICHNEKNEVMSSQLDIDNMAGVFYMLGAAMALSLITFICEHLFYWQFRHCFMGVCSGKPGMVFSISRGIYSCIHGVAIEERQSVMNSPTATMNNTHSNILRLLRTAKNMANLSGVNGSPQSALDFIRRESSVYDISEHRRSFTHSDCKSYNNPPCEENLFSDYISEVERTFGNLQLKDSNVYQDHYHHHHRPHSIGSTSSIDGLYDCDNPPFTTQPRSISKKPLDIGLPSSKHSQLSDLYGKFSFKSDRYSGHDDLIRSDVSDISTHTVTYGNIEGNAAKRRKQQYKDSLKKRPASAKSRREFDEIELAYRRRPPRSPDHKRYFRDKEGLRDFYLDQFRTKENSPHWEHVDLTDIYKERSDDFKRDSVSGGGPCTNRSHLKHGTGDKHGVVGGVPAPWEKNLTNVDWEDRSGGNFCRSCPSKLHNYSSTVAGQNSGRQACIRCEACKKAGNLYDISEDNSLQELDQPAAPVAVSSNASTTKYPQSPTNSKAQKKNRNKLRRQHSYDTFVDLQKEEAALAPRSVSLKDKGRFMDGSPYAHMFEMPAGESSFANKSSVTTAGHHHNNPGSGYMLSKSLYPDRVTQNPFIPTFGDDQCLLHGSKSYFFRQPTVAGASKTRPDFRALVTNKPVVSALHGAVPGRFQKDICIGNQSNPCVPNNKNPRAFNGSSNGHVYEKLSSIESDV

[2] = target: T2, GST fusion protein of wild-type RIN1 (mouse) (UniProt Q921Q7); test: pull-down; GST fusion proteins bound to glutathione agarose beads, incubated with spinal cord lysate supernatant in RIPA buffer for 4 h at 4°C; immunoblot; only the target purified
T2 sequence: T1 sequence

[3] = target: T3, GST-RIN1(1-221), a GST-fused N-terminal region encompassing the SH2 domain (mouse) (UniProt Q921Q7); test: as above
T3 sequence: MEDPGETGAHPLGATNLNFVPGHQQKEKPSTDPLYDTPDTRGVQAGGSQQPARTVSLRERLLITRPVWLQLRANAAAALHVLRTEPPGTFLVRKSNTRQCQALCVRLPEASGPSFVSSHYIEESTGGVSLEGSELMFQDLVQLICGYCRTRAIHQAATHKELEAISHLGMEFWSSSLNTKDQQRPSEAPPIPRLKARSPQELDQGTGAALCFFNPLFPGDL

[4] = target: T1, Ras and Rab interactor 1 (RIN1), endogenous (mouse (endogenous in spinal cord dorsal horn)); test: proximity ligation; Duolink in situ fluorescence PLA on mouse spinal sections with EGFP-labelled SOM+ interneurons; mouse anti-RIN1 with rabbit anti-GluN2A or rabbit anti-GluN2B antibody

Row | binding [1] | binding [2] | binding [3] | binding [4] | Substance
1 | binds | binds | binds | binds | GluN2A subunit of NMDA receptors, endogenous (from UniProt P35436 23-1464)
2 | no binding |  |  | no binding | GluN2B subunit of NMDA receptors, endogenous (from UniProt Q01097 27-1482)

— publication PMC12671805
